± gives the standard deviation of the averaged measurements. The list shows a part of the results.
Test system: PfAP2-G AP2 domain (GST-tagged)
Assay: gcPBM binding intensity (ln(normalized median fluorescence intensity)); higher = stronger DNA binding
Summary of the method: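 For binding intensity, the highest Masliner-normalised natural-log median intensity across replicate spots of either probe orientation was taken. Protein bound to the array was stained with Alexa488 anti-GST antibody and scanned at 488 nm. The protein, GST-tagged P. falciparum DNA-binding domains from E. coli at about 25 μg on average, had been applied for 1 h to an Agilent 4 × 180k array of primer-extended double-stranded 36-bp intergenic genomic probes and negative controls.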

Sequence	gcPBM binding intensity (ln)
ACAAAAAAATGAAAAGAAAAAGATATACCCCAATAT [CACACA_negctrl_site509]	10.4 ± 0.18
ACCGTGGGAGGACACACACACACACCCACATATATA [CACACA_site4339]	11.5 ± 0.95
ATTTTTGTTATTACATGTACCCATAATTATTATTAA [XGTACX_site3558]	11.4 ± 0.81
TATTTATATTCCTTTACACACTCCATCTTATATCCA [CACACA_site3604]	9.99 ± 0.11
AACAATTATTTGTCGACACACGTATATGTTATTTAG [CACACA_site5046]	10.3 ± 0.049
TATATATTAATATTTACACACATGCGCACCCATAAA [CACACA_site2410]	10.7 ± 0.54
ATATCCATAATAAAAACATGCAACAGAAAAAAAAAA [TGCATGCA_site497]	9.82 ± 0.028
AAGAGAAATATATATTGTACAATAATTTTATTTGGT [XGTACX_site7642]	10.9 ± 0.36
TTCCAAAAAATTATTACACACATATGAGCACATATA [CACACA_site4543]	10.1 ± 0.18
TAATATACATATATATGTACATATATATATATATAT [XGTACX_site2684]	11.1 ± 0.76
TATTAATTAAAAAAATGTACATAATTATAAATTTTT [XGTACX_site7994]	11.1 ± 0.68
TACGGTTGTTTATTTTGTACGTAAAAAATATATTAT [XGTACX_site8393]	11.5 ± 0.82
ATATAAATAAATACAACACACATGTCATATCTAAAT [CACACA_site7533]	9.855 ± 0.078
TATATACATAAAATTTGTACATATATATATATATAT [XGTACX_site3214]	10.7 ± 0.44
AAAAAAAAAAAATGAGCACACATAAATAAAAACAAA [CACACA_site8447]	10.2 ± 0.12
TTAAAAAATTATTGTAGTACATAGGAAATGAAAAAA [XGTACX_site155]	11.6 ± 1
TAAATTAAATATTATAAACACACATATATATTATTT [CACACA_site8189]	9.61 ± 0.2
AAATTACATACACGCGCACACACAAAAAAAAAAAAA [CACACA_site1335]	10.6 ± 0.68
ATATTATTCTTATATTCACACAGTTTATATTTCCGT [CACACA_site5653]	9.88 ± 0.19
GTATATATATTTCTTTAATAATTAAATTATAAATAT [CACACA_negctrl_site640]	9.8 ± 0.15
TGGCAAAATAGGCACACACACATATACATATATATT [CACACA_site1059]	10.2 ± 0.19
TATATAATTAAAATAACACACATATATAAAAATATA [CACACA_site2990]	9.72 ± 0.24

Sequence	gcPBM binding intensity (ln)
ATATTATAGTATATAACACACATTTTTCATAACACT [CACACA_site6331]	9.89 ± 0.13
ATAATATATAAACACACACACATATATAAATACATT [CACACA_site4466]	9.895 ± 0.007
CATGCCGTTAAATTATGTACTTATTATTTTAATATG [XGTACX_site4209]	11.3 ± 1
AATATATAAACACGTACACACACATATATGTATATA [CACACA_site9168]	11.6 ± 1
AATTTAAATATTTGTTGTACGTATTTATATATTCTT [XGTACX_site3623]	11.6 ± 0.88
TATTATATCTTATATGTATATTCCCACAAATTATAT [GTGCAC_negctrl_site362]	10.01 ± 0.099
TCACATATTATCTTTACACACTATAAATAAGTTTTA [CACACA_site7335]	9.97 ± 0.028
TTGATATTTTTTTTATGTACACATGTTCATATTTTT [XGTACX_site8095]	11.5 ± 0.79
ATTTAAAAAAGAAAGGTGCATTTCAATAATGTAAAA [GTGCAC_site9585]	10 ± 0.13
TCATCTTTTATATGTTGTACGTATTTTCATTTATAT [XGTACX_site4855]	11.5 ± 0.91
AAGTAGTGTTAATACTGTACTTATATTTTTTATTAT [XGTACX_site8264]	11.4 ± 0.89
TTATTATATATATCTCGTACGTGTATACGCCTACCA [XGTACX_site8375]	10.9 ± 0.54
TGTTATATTTCAAATTGTACTAATCTAATTAATAAA [XGTACX_site604]	11 ± 0.69
AAAAAAATGAAACACACACACACATATATATATATA [CACACA_site1043]	10.3 ± 0.69
AAACAATTACACATATGTATGTATATATATATATAT [TGCATGCA_negctrl_site536]	10 ± 0.22
ACAAAGTTTATAGAACGTACATACTTACACATATTT [XGTACX_site556]	11.1 ± 0.6
TTTTTTTCTTTTTGAGGTACGCATTATTTTATTTGT [XGTACX_site6996]	11.3 ± 0.79
ATAATTTGATGGTTAACACACATATAGATTATAGAT [CACACA_site7200]	9.96 ± 0.057
AAAGATTGCGATGGTTGTACTTTTCTATATTTTTTT [XGTACX_site3492]	11.3 ± 0.74
CTAAAATACGAACACACACACACATATAAATAAATA [CACACA_site7872]	10.3 ± 0.45
TATACTTCTTATTAAATGAGTAGTATATATTATATA [TGCATGCA_negctrl_site299]	10 ± 0.28
TTTTTTAAAAGAAAATAAAAAATAAGCATAATATGA [CACACA_negctrl_site1574]	9.97 ± 0.014

Sequence	gcPBM binding intensity (ln)
AAGGGTTATTTGATATGTACTTATATATATATATAA [XGTACX_site1659]	11.1 ± 0.87
AAGGTGGAAACAATTACACACACACTAATAAAAAAA [CACACA_site9051]	10.1 ± 0.22
AAGTACAAATTTAATAAAAATGAAACAAATATGTAT [TGCATGCA_negctrl_site94]	10.37 ± 0.092
AAAAACCATGGGCACACACACATAATATATAATATA [CACACA_site1425]	10.6 ± 0.43
GTTATATATATATATATATATATATATATTTTTTTT [GTGCAC_negctrl_site597]	9.62 ± 0.099
TATATCGTTAATTATACACACATAAAATTAAACTTT [CACACA_site1274]	10.1 ± 0.25
ATGGAATTTTTAGAATATGGATAATGTTACTTAAGT [CACACA_negctrl_site494]	9.945 ± 0.078
ACCATACATACATACACACACACACGCATATTTATA [CACACA_site7386]	10.4 ± 0.28
TAATTTTAAATATCTTCACACATTATATTTTTATAT [CACACA_site5411]	9.62 ± 0.13
TATAATAATACTTATTGTACGATTAGCTTAATTCGT [XGTACX_site15]	10.9 ± 0.5
TATATAAATAGATACACACATACATACATACATACA [CACACA_site260]	10.4 ± 0.31
AAATTAAAAAAGAATATACACACCAAAACTGTTTGT [CACACA_site958]	9.77 ± 0.26
TAAAAAAAGGAAAACATACAATTCTATTTTTCAATA [CACACA_negctrl_site474]	9.64 ± 0.042
TACAAACTATGATGCACACATATATATCTGTATCCA [CACACA_site4809]	9.995 ± 0.078
TATTTTAATTAATATACACACGCTTATATATATATA [CACACA_site7909]	10.1 ± 0.18
TTTCTTTTTTTTTTTTGTACATATTTTAATTATTTT [XGTACX_site8676]	11.1 ± 0.68
TATTATATATATAACTGTACGTTTATAATATAAAAA [XGTACX_site3778]	11.4 ± 1.1
TAATCATTTTAGCTTACACACAAAATTTGGTTATAA [CACACA_site5604]	9.915 ± 0.007
ACAGGATTGGTTCAAACACACATATTATATGACTAT [CACACA_site4536]	10.01 ± 0.028
AGTGTTAAAAATGAGGGTACATATAAAATACAGTTC [XGTACX_site457]	11.2 ± 0.64
ATATTTATTTATATGTGTACTTATGTTTATATAAAA [XGTACX_site4250]	11.5 ± 0.81
CATATATAAATATGTATGCACTTTAACAAAATGTAT	9.995 ± 0.007

Sequence	gcPBM binding intensity (ln)
ATTCCACCTTAAAACTGTACTTTCTCAATCTTTTAT [XGTACX_site796]	11.4 ± 0.89
TAATAAATAGGACACACACACATATATATATATTAT [CACACA_site4891]	11 ± 0.63
ATTATGTTATATACACGTACGTGTGCTTTATAATTA [XGTACX_site2728]	11.2 ± 0.52
ATAAAGTAGATATTTTGTACGCAGGTTGTATATATT [XGTACX_site1464]	11.2 ± 0.6
TACTTTACTAATATATATAGGAGAGTATACATGAAA [CACACA_negctrl_site63]	10.1 ± 0.23
GGAATTATAATAAATGGTACACATAAAAAAAAAAAA [XGTACX_site8343]	11.2 ± 0.97
AAATAATACCAAATGTGTACTTATTTCACTAATAGA [XGTACX_site7571]	11.4 ± 1.1
ATATATACTTATATTTGTACACAAAGGTATCTCTAG [XGTACX_site3805]	11.2 ± 0.71
GGAATAATAAAATTATGTACATAAGAATCATATACT [XGTACX_site6810]	11.2 ± 0.37
TTTGATAAATTATACACACACAATATATATAAAATA [CACACA_site2023]	10.1 ± 0.12
ACGGACTTAAAATACACACACACCAAAAAAAAAAAA [CACACA_site7304]	10.3 ± 0.52
AAAAAAAAAAATCGCTGTACTTCTAAAGGTGTGTTA [XGTACX_site843]	11.4 ± 0.82
CAAACAAACGGACACACACACACACCCAAAAATGAT [CACACA_site5363]	11.2 ± 0.69
AGTTTTATATAAGCTTGTACTTAATATTATTAAGTA [XGTACX_site5919]	11 ± 0.68
TTTTATTTTTTAGTAGTACACACTTTTTGTACCTTT [CACACA_site599]	11.8 ± 1
AATAATATATAATAATGTACAAAAAAAAAAAAAAAA [XGTACX_site4158]	10.6 ± 0.68
AAGCTTTGGTGTTATGCATGCAATTAAACTATTAGT [TGCATGCA_site277]	9.89 ± 0.071
ATTTTGTTATGAAACACACACATATAAATATAAATA [CACACA_site7679]	10.2 ± 0.23
AATACACGCAGACACACACACAAAAAAAAAAAAAAA [CACACA_site6384]	10.2 ± 0.61
TATATAAAACATGGGTGTACCAACATAAATCATATA [XGTACX_site2320]	10.9 ± 0.64
AATTGTGCATTATATTGTACACGTGTTGTATATATT [XGTACX_site975]	11.4 ± 0.81
TTGAATATGGTTACATGTACGTATCAATATTTTTTA [XGTACX_site4247]	11.4 ± 0.78

Reference: the supplement of paper PMC11417369
